# From PubChem BioAssay AID624417 (National Center for Advancing Translational Sciences (NCATS), 2012)
# Hit rate of the full screen: of about 410,000 compounds, about 6,400 (1.6%) were called active. The shares of active, inactive and inconclusive entries below differ from those in the screen. Calls follow the shape of the dose curve; as a rule, active = well fitted inhibition curve with a large enough effect; inconclusive = small, poorly fitted or top-dose-only effect; inactive = no such curve, though single readings can be large or run the other way. No potency is given beside an inconclusive call; the fits are too rough.
# Target: Glucagon-like peptide 1 receptor (Homo sapiens) (UniProt P43220)
# Experiment: qHTS of GLP-1 Receptor Inverse Agonists (Inhibition Mode); also: nearly all actives have a fitted effect of over 55% in size
# Conditions: HEK293 GLP-1R CRE-luciferase, luminescence, 24 h, GLP-1R form is constitutively active; activity change, negative = inhibition: at 38.3 µM (top of the series) unless noted
# Outline: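 Inverse agonism was detected as reduced cAMP-driven luciferase luminescence after 24 h compound treatment. The cells were HEK293 clones expressing constitutively active human GLP-1R with the reporter. Reporter-only and GPR119 cell lines served as counterscreen controls.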
# % is scaled to controls: 0 for no effect and ±100 for the full control effect; potency is read from the fitted curve at half-maximal effect; tags tell the direction and shape of the fitted curve.
# Sequence of UniProt P43220 (P43220 whole entry, looked up): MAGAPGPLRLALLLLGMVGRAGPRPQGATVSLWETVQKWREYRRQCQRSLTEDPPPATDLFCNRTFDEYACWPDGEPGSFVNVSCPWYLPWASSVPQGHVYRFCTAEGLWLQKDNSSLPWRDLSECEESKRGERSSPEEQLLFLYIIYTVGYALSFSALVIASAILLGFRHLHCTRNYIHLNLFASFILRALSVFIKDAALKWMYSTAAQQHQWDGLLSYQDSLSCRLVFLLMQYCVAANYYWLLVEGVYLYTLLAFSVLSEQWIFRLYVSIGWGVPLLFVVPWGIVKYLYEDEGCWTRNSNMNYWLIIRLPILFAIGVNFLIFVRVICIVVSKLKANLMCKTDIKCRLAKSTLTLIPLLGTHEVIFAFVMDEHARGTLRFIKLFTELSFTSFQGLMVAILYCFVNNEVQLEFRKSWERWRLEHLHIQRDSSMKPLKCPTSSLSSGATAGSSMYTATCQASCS
Compound,Potency,"activity change, negative = inhibition"
COC(=O)c1cc(OCC(=O)NC2CCCc3ccccc32)cc(C(=O)OC)c1 (configuration not stated),"inconclusive [inhibitor, partial curve, poor fit]",
CCN1C(=O)c2ccccc2S(=O)(=O)c2ccc(C(=O)NCCCN(CC(C)C)CC(C)C)cc21,,inconclusive: -53.9% [inhibitor]
O=C(COC(=O)/C(=C/c1cccs1)c1cccs1)NCc1ccccc1Cl,"inconclusive [inhibitor, partial curve, poor fit]",
Cc1ccc(NC(=O)COC(=O)c2ccccc2-c2nc3ccccc3s2)c(C)c1,"inconclusive [inhibitor, partial curve]",
C=CCNC(=O)c1sc(=S)n(-c2ccc(C(=O)OCC)cc2)c1N,,inactive: 4.32%
N/C(=N\OC(=O)Cc1ccccc1[N+](=O)[O-])c1cccc(Br)c1,"inconclusive [inhibitor, single point]",
C/C(=N\Nc1ccc(C(=O)O)cc1)c1ccc(Cl)s1,"inconclusive [inhibitor, partial curve]",
Cc1ccc(C)c(OCC(=O)Nc2ccccc2C(=O)N2CCOCC2)c1,"inconclusive [inhibitor, partial curve, poor fit]",
O=C(CC1S/C(=N/N=C2CCCCCC2)NC1=O)Nc1ccc(Br)cc1F (configuration not stated),"inconclusive [inhibitor, single point]",
CC(=O)c1ccc(O)c(CSc2nncn2C)c1,,inactive: 5.67%
CCOc1cc(/C=N/Nc2cccc(C(=O)O)c2)ccc1OC(=O)c1ccccc1,"inconclusive [inhibitor, single point]",
COc1ccc(/C=N/NC(=O)c2cc(C34CC5CC(CC(C5)C3)C4)[nH]n2)cc1OC,,inactive: 2.54%
CCC(=O)N(C)C(c1ccccc1Cl)c1nnnn1-c1c(C)cccc1C (configuration not stated),"inconclusive [inhibitor, full curve, poor fit]",
COc1ccc(N2CCC(CNC(=S)Nc3cccc(C)c3)C2)cc1 (configuration not stated),"inconclusive [inhibitor, partial curve]",
O=C(C=CC(=O)Nc1ccc(F)cc1F)Nc1ccc(F)cc1F,,inactive: 16.9%
COc1ccc(CN(Cc2ccco2)c2cnc(S(C)(=O)=O)nc2C(=O)Nc2ccc(C)c(C)c2)cc1,,inactive: 0.52%
O=C1CC2(CCN(C(=O)c3ccc(Cl)cc3)CC2)Oc2ccccc21,"inconclusive [inhibitor, partial curve, poor fit]",
Cc1ccc(NC(=S)NCCc2ccccc2)c(C)c1,"inconclusive [inhibitor, partial curve, poor fit]",
COc1cc(/C=C2\SC(=S)N(N(C)c3ccccc3)C2=O)ccc1O,,inactive: -11.2%
Cc1ccc(-c2nnc(NCc3nc4ccccc4[nH]3)c3ccccc23)cc1S(=O)(=O)N1CCOCC1,"inconclusive [inhibitor, single point]",
CCSc1ncc(Cl)c(C(=O)Nc2ccc(S(=O)(=O)Nc3nccc(C)n3)cc2)n1,,inactive: 7.54%
Cc1ccc(Cl)cc1NC(=O)Cn1cc2c(n1)CCCCC2,"inconclusive [inhibitor, single point]",
O=C(Nc1cc(S(=O)(=O)N2CCOCC2)ccc1N1CCCCC1)c1ccccc1Br,"inconclusive [inhibitor, partial curve, poor fit]",

Compound,Potency,"activity change, negative = inhibition"
CCOC(=O)/C(=C/C1=CC(=C/N(C)C)/C(=O)O1)C(C)=O,,inactive: 17%
CCCNC(=O)c1ccc2nc(-c3ccccc3)c(-c3ccccc3)nc2c1,active: 3.55 µM,
COc1ccc(/C=C/C(=O)Nc2ccc(OC)nc2)cc1,"inconclusive [inhibitor, single point]",
CC(=O)/C(=N\Nc1ccccc1Cl)Sc1nnc(-c2ccccc2)n1-c1ccccc1,,inactive: 0%
COC(=O)[C@]12CCCCC=C1N(Cc1ccc(Cl)cc1Cl)C(=O)[C@H](CC(=O)NCCCCc1ccccc1)C2,"inconclusive [inhibitor, single point]",
O=C(c1cccs1)n1nc(NCc2ccccc2)nc1NCc1ccccc1,"inconclusive [inhibitor, partial curve, poor fit]",
CNS(=O)(=O)c1cc(-c2nnc(Nc3ccc(NC(C)=O)cc3)c3ccccc23)ccc1C,,inactive: 20.9%
Nc1c2c(nc3ccccc13)N(C1CCCCC1)CC2,"inconclusive [inhibitor, single point]",
O=C(Nc1ccccc1Cl)N1CCN(c2ccccn2)CC1,,inactive: -5.48%
Cc1cccc(C)c1OCCn1c(C2CC(=O)N(Cc3ccc(F)cc3)C2)nc2ccccc21 (configuration not stated),"inconclusive [inhibitor, single point]",
CCOc1cc(/C=N/NC(=O)Cc2ccc(C(F)(F)F)cc2[N+](=O)[O-])ccc1O,,inactive: 6.34%
CC(CNC(=O)c1ccc2c(c1)nc1n2CCOC1)c1ccccc1 (configuration not stated),,inactive: 5.98%
Cc1ccc(C)c(N2CCN(C(=O)c3ccc(N4CCCC4=O)cc3)CC2)c1,"inconclusive [inhibitor, single point]",
O=C(CSc1nc2ccccc2o1)Nc1ccc(N2CCOCC2)c(Cl)c1,"inconclusive [inhibitor, single point]",
CCCCN(C)C(=O)c1cc2cc3ccc(OC)cc3nc2s1,"inconclusive [inhibitor, partial curve, poor fit]",
O=C(Cn1ncc2c1-c1ccccc1OC2)N(Cc1ccco1)C1CCCCC1,"inconclusive [inhibitor, single point]",
Cc1ccc(NC(=O)CCN2CCN(C)CC2)cc1,,inactive: 17.8%
Fc1ccc(C2CCCCN2Cc2nc(CC3CC3)no2)cc1 (configuration not stated),"inconclusive [inhibitor, single point]",
O=C(/C=C/c1ccccc1)c1ccc2c(c1)OCCCCO2,,inactive: -23.5%
O=C(Nc1ncc(Cc2ccccc2Cl)s1)C1=NCCN1,"inconclusive [inhibitor, single point]",
Cn1c(-c2ccsc2)c(-c2cccs2)c2cc(-c3cccc4[nH]ccc34)ccc21,"inconclusive [inhibitor, single point]",
Cc1ccc(NC(=S)c2nc3ccccc3[nH]2)c(C)c1,"inconclusive [inhibitor, single point]",
CCOc1ccc(NC(=O)Nc2ccc3c(c2)N(C)C(=O)CS3)cc1,"inconclusive [inhibitor, single point]",

Compound,Potency,"activity change, negative = inhibition"
COc1ccc(NC(=O)CN(C)C(=O)C23CC4CC(CC(C4)C2)C3)cc1,"inconclusive [inhibitor, partial curve, poor fit]",
Cc1ccc(Cc2c(C)nc3c(-c4ccccc4)c(C)[nH]n3c2=O)cc1,"inconclusive [inhibitor, partial curve, poor fit]",
COc1ccc(CCNC(=O)C2CC3Cn4c(nc5ccccc54)C3N2Cc2ccccc2)cc1 (configuration not stated),"inconclusive [inhibitor, single point]",
COc1cc(Br)c(CN2CCCN(C)CC2)cc1OC,"inconclusive [inhibitor, full curve]",
CCCCCC(=O)N1C[C@@H](O)[C@H](n2cc(COC(=O)c3ccccc3)nn2)C[C@@H]1c1ccccc1,"inconclusive [inhibitor, partial curve]",
Cc1ccc(Cn2ncc3c(NCCN(C)C)ncnc32)cc1,,inactive: -0.664%
CCOc1ccccc1NC(=O)C(OC(=O)C1CC1)c1ccccc1 (configuration not stated),"inconclusive [inhibitor, single point]",
Oc1ccccc1C1NN=C(c2ccccc2)S1 (configuration not stated),"inconclusive [inhibitor, single point]",
CCc1ccc(CN(C)C(=O)c2cc(=O)c3ccccc3o2)cc1,"inconclusive [inhibitor, single point]",
O=C(N/N=C\c1cc(Br)cs1)C1COc2ccccc2O1 (configuration not stated),"inconclusive [inhibitor, partial curve, poor fit]",
O=C(CCn1c2c(c3ccccc31)CCCC2)NNC(=O)c1ccccc1C(=O)O,,inactive: -16.4%
Cc1ccc(OC/C(=N\O)C(C)(C)C)c([N+](=O)[O-])c1,"inconclusive [inhibitor, partial curve, poor fit]",
COC(=O)C1=C[C@@H](C(=O)OC)[C@@H]2C3=C(C(=O)[C@@]2(C)NC(=O)c2ccccc2)[C@H](C)n2c(=O)n(C)c(=O)n2[C@@H]3C1,,inactive: 5.72%
O=S(=O)(c1ccc2ccccc2c1)N1CCCCC1,"inconclusive [inhibitor, single point]",
O=C(Nc1cc(S(=O)(=O)N2CCCCC2)ccc1Cl)c1ccccc1NS(=O)(=O)c1ccc(F)cc1,active: 2.82 µM,
Cc1ccc(CC(=O)Nc2c(C(=O)N3CCN(c4ccccc4)CC3)oc3ccccc23)cc1,"inconclusive [inhibitor, single point]",
O=S(=O)(Nc1ccc(Cl)cc1)c1cccc2nsnc12,"inconclusive [inhibitor, single point]",
CCOC(=O)N1CCC(Nc2c(Nc3ccc(F)cc3)c(=O)c2=O)CC1,,inactive: 0.901%
COc1ccccc1CNC(=S)NCc1ccc(F)cc1,"inconclusive [inhibitor, single point]",
Cc1nn(C)c2c1c(C(F)(F)F)cc(=O)n2CC(=O)N1CCN(c2ccccc2F)CC1,"inconclusive [inhibitor, single point]",
CCC(C)c1ccc(NC(=S)Nc2ccc(OC)c(OC)c2)cc1 (configuration not stated),"inconclusive [inhibitor, partial curve, poor fit]",
